Results on 58 molecules are retold here after publication PMC4336329 (PLoS ONE, 2015).

The structures appear in SMILES notation. Screen size: about 310,000 compounds; about 2,200 (0.71%) showed an effect of 50% or more. Effects have a minus sign here. This is one part of the list.

human ether-à-go-go-related gene (hERG) potassium channel, sequence (Q12809 whole entry, looked up): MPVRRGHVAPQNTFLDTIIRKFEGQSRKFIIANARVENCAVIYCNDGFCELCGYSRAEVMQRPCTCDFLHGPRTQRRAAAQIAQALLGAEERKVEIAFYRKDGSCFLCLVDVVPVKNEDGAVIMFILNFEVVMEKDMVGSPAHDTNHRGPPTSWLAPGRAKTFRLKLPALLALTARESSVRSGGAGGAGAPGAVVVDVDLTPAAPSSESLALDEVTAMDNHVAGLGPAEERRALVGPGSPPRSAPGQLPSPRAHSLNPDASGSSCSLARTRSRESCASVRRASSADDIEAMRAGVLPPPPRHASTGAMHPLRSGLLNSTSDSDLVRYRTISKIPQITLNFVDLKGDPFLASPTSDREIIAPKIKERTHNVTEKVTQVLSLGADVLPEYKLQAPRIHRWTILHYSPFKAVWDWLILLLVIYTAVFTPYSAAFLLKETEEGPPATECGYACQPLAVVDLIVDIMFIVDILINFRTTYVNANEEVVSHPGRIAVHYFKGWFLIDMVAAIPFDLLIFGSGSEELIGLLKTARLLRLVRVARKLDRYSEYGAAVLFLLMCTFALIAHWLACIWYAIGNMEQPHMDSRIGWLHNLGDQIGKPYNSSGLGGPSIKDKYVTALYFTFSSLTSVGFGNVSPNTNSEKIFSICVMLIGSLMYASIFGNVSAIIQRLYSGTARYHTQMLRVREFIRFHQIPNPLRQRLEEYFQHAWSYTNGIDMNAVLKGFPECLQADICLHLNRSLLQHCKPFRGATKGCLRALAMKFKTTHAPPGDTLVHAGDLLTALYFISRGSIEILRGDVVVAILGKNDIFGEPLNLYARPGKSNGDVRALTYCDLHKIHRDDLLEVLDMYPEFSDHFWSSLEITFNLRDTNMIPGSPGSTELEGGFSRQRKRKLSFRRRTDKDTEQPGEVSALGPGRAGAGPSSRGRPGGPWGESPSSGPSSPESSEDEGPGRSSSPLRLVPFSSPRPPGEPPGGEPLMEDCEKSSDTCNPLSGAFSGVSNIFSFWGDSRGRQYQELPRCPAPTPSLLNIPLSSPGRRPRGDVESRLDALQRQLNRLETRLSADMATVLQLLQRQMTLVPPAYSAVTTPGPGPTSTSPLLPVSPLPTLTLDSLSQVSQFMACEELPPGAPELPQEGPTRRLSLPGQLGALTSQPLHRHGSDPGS

This assay has as its target human ether-à-go-go-related gene (hERG) potassium channel (human, UniProt Q12809). Kind of assay: primary screen, population patch clamp on CHO cells stably expressing hERG.
Turning to `COc1ccc(-c2nc3ccncc3[nH]2)cc1OC.Cl`, the “hERG current change (%, negative = inhibition) at 1uM” value is 10.1%.
Take `COc1ccc(OC)c(C(C)NC(=O)C23CC4CC(CC(C4)C2)C3)c1` (stereo not shown): the “hERG current change (%, negative = inhibition) at 1uM” value was found to be 15.8%.
For `COC(=O)c1cc(OC)c(OC)cc1NC(=O)c1ccc(OC)cc1`, the “hERG current change (%, negative = inhibition) at 1uM” value is 5.44%.
Regarding `CC(C)CN(C(=O)COC(=O)c1cccn1C)c1c(N)n(Cc2ccccc2)c(=O)[nH]c1=O`, the “hERG current change (%, negative = inhibition) at 1uM” value is reported as 16.6%.
As to `Cc1cnc(C(=O)OCC(=O)c2c(N)n(CC(C)C)c(=O)n(C)c2=O)cn1`, the “hERG current change (%, negative = inhibition) at 1uM” value was 4.36%.
Then `CCOc1ccc(S(=O)(=O)N2CCOCC2)cc1NC(=O)C1CSC2(C)CCC(=O)N12` (stereo not shown), with 3.78%.
As to `CCc1n[nH]c(=S)n1/N=C/c1ccccc1OCc1ccc(Cl)cc1`, the “hERG current change (%, negative = inhibition) at 1uM” value is recorded as 17.1%.
On to `CCCCCCCNC(=O)c1cc(-c2ccncc2)nc2ccccc12`, for which the “hERG current change (%, negative = inhibition) at 1uM” value was found to be 15.4%.
Take `O=C(CSc1cccc2cccc(Cl)c12)NCc1cccs1`: the “hERG current change (%, negative = inhibition) at 1uM” value is listed as 8.04%.
With `Cc1cccc(C)c1NC(=S)N(CCCN1CCOCC1)Cc1cccnc1`, the “hERG current change (%, negative = inhibition) at 1uM” value is reported as 9.28%.
Then `CCN(CC)C(=S)SCC(=O)Nc1ccc(F)cc1`, with 1.48%; and `COCCN(C(=O)COC(=O)c1ccc(C=O)cc1)c1c(N)n(Cc2ccccc2)c(=O)[nH]c1=O`, with 7.21%.
For `COc1ccccc1/C=N/Nc1nc(C)c(C(C)=O)s1`, the “hERG current change (%, negative = inhibition) at 1uM” value turned out to be 11.6%.
Consider `O=C(CCc1nc(-c2cccs2)no1)NCc1ccc(F)cc1Cl`, for which the “hERG current change (%, negative = inhibition) at 1uM” value is listed as -3.46%.
As to `O=C(CSc1ncnc2nc[nH]c12)Nc1ccccc1C(F)(F)F`, the “hERG current change (%, negative = inhibition) at 1uM” value was 10.8%.
Next, `CC(=O)c1ccc(NC(=O)COC(=O)C2C3CC4OC(=O)C2C4C3)cc1` (stereo not shown): 10.8%; `COc1ccc(CCN=C(NS(=O)(=O)c2ccccc2)c2ccccc2)cc1OC`: 14.6%; `N#Cc1ccccc1NC(=O)CN1C(=O)NC(Cc2c[nH]c3ccccc23)C1=O` (stereo not shown): 4.34%.
As to `O=C(Nc1cccs1)Nc1c(F)c(F)c(F)c(F)c1F`, the “hERG current change (%, negative = inhibition) at 1uM” value is reported as -34.5%.
As to `CC(C)c1ccccc1NS(=O)(=O)c1cccs1`, the “hERG current change (%, negative = inhibition) at 1uM” value was 10.9%.
In the case of `CCOC(=O)CC(NC(=O)CCc1c(C)nc2ncnn2c1C)c1ccc(C)cc1` (stereo not shown), the “hERG current change (%, negative = inhibition) at 1uM” value came out at 7.89%.
As for `O=C(N/N=C/c1ccc(N2CCCCC2)o1)c1ccccc1`, the “hERG current change (%, negative = inhibition) at 1uM” value is reported as 10.7%.
With `CC(=O)Nc1ccc(NCc2cccs2)cc1`, the “hERG current change (%, negative = inhibition) at 1uM” value is listed as 12.5%.
For the molecule `CC(C)=CCN1CCN(Cc2cn(C(C)C)c3ccccc23)CC1CCO` (stereo not shown), the “hERG current change (%, negative = inhibition) at 1uM” value is on record as 4.15%.
Then `O=C(OCC(=O)c1c[nH]c2ccccc12)c1ccc([N+](=O)[O-])s1`, with 7.46%; and `Cn1c(=O)[nH]c(=O)c2c1nc(N1CCc3ccccc3C1)n2CCSc1nc2ccccc2s1`, with 18.7%; and `Cc1cccc(CCN(CC(=O)NC2CCCCC2)C(=O)c2csnn2)c1`, with 5.92%.
For `CC(C)c1cc(N2CCOCC2)n2ncc(-c3ccccc3)c2n1`, the “hERG current change (%, negative = inhibition) at 1uM” value was -7.66%.
For `COc1ccc(C(CNC(=O)c2cccn2C)N2CCOCC2)cc1` (stereo not shown), the “hERG current change (%, negative = inhibition) at 1uM” value is recorded as 6.05%.
As to `CCOC(=O)c1cnc2ccccc2c1NCCc1ccc(OC)c(OC)c1`, the “hERG current change (%, negative = inhibition) at 1uM” value is on record as -72%.
As for `Cc1nnc(C)n1/N=C/c1ccc(C(=O)O)cc1`, the “hERG current change (%, negative = inhibition) at 1uM” value turned out to be 14%.
For `O=C(CSc1ccc(F)cc1)Nc1ccc(C2SCCS2)cc1`, the “hERG current change (%, negative = inhibition) at 1uM” value is 9.58%.
With `CCN(CC)CCN(Cc1cc2cc3c(cc2[nH]c1=O)OCO3)C(=S)NCCCOC`, the “hERG current change (%, negative = inhibition) at 1uM” value is reported as 5.24%.
Turning to `COc1cccc(-c2nc(CS(=O)CC(=O)O)c(C)o2)c1` (stereo not shown), the “hERG current change (%, negative = inhibition) at 1uM” value amounted to 7.93%.
Consider `CC(=O)N/N=C/c1cc([N+](=O)[O-])ccc1OCCOc1ccccc1`, for which the “hERG current change (%, negative = inhibition) at 1uM” value turned out to be 5.03%.
Turning to `CCC(C)(C)NC(=O)c1sccc1Oc1ccc(F)cc1[N+](=O)[O-]`, the “hERG current change (%, negative = inhibition) at 1uM” value is listed as 5.57%.
For the molecule `CCN1CCN(Cc2c(OC)ccc3ccccc23)CC1`, the “hERG current change (%, negative = inhibition) at 1uM” value is 7.06%.
For `Cc1ccc2nc(N3CCN(CCO)CC3)nc(-c3ccccc3)c2c1`, the “hERG current change (%, negative = inhibition) at 1uM” value is recorded as -9.56%.
Then `O=C(CN1CCNCC1)Nc1ccc(Oc2ccccc2)cc1`, with 6.34%; and `CCOc1ccc(N(C)S(=O)(=O)c2cnc[nH]2)cc1`, with 1.84%.
Regarding `Cc1ccc(C(=O)Nc2cccc(C(F)(F)F)c2)cc1NC(=O)c1nccn1C`, the “hERG current change (%, negative = inhibition) at 1uM” value worked out at 5.95%.
Consider `Cc1noc(C)c1C(=O)NC1=NCCS1`, for which the “hERG current change (%, negative = inhibition) at 1uM” value is -8.14%.
Next, `O=C(NCc1ccc(C(F)(F)F)cc1)C1CC(c2ccccc2C(F)(F)F)=NO1` (stereo not shown): 8.17%; `CCOCCCn1c(SCC(=O)Nc2ccc(OC)cc2)nc2ccccc2c1=O`: 5.8%.
Next, `CC(NC(=O)CN(C)Cc1cccc(F)c1)c1ccccc1` (stereo not shown): 11.6%.
`COCCn1c(C(=O)N2CCCC2)cc2c1C[C@H]1CN(C(=O)c3ccccc3)[C@@](Cc3ccc(F)cc3)(C(=O)OC)[C@@H]21`: the “hERG current change (%, negative = inhibition) at 1uM” value is given as 3.78%.
Consider `CCOC(=O)c1c(C)[nH]c(C(=O)COC(=O)CNC(=O)c2ccc(Cl)cc2Cl)c1C`, for which the “hERG current change (%, negative = inhibition) at 1uM” value was 22.7%.
Next, `N#Cc1cn(Cc2ccccc2)c2ccccc12`: 11.4%; `CCOc1ccc(-c2nnc(-c3ccncc3)o2)cc1OCC`: 4.87%.
In the case of `CCS(=O)(=O)NCc1cn2ccsc2n1`, the “hERG current change (%, negative = inhibition) at 1uM” value is listed as 8.52%.
Take `CCOC(=O)c1cc(NC(=O)Nc2ccc(OC)c(OC)c2)c(C)nc1C`: the “hERG current change (%, negative = inhibition) at 1uM” value worked out at 13.5%.
Turning to `COC(=O)CNC(=O)C1CCN(c2nc(C)cc(C)n2)CC1`, the “hERG current change (%, negative = inhibition) at 1uM” value came to 11.3%.
For the molecule `CCn1c(=O)n(CC(=O)N2CCC3(CC2)OCCO3)c(=O)c2ccccc21`, the “hERG current change (%, negative = inhibition) at 1uM” value came to 7.61%.
Next, `CC(C)=CCN1CCN(Cc2ccc(Sc3nncn3C)o2)CC1CCO` (stereo not shown): 19.2%.
As for `COC(=O)c1ccc[n+](CCc2c[nH]c3ccccc23)c1.[Br-]`, the “hERG current change (%, negative = inhibition) at 1uM” value came to 15.9%.
Regarding `COc1ccc(S(=O)(=O)Nc2c(C(=O)O)[nH]c3ccc(OC)cc23)cc1`, the “hERG current change (%, negative = inhibition) at 1uM” value was determined as 12.6%.
Consider `O=C(CSc1nnc(-c2ccccc2)o1)N1CCCCC1`, for which the “hERG current change (%, negative = inhibition) at 1uM” value is given as 10.9%.
Regarding `NNC(=O)c1cc2c(N3CCC(Cc4ccccc4)CC3)ncnc2s1`, the “hERG current change (%, negative = inhibition) at 1uM” value was 7.11%.
